Test results reported in the RNAGym collection of RNA variant scans (doi:10.7554/elife.90254).
The source gives no read counts; variants with many changes may rest on few reads.

B1: LINE1-full (parent)
chain: UACGUAGGUGGUUUUCCCCUGAUAGUGCUAAGGGGGCCUGGAAGUUUGGACUGGGCAGAGCUCAACACAGCGUGGCAAAGUGGCUGUGGCUAGACUGCCUCUCUGGAUUCCUCGUCACUCAGCAGGGCAUCUCUGAGAGAAAUGCC

Variants of: B1
Experiment: self-cleavage, relative activity (ratio to wild type); higher = more cleavage; in vitro, sequencing; the parent is a self-cleaving ribozyme

Variant	self-cleavage
UACGUAGGUGGUUGUCCCCUGAUAGUGCUAAGGGGGCCCGGAAGUUUGGACUGGGCAGAGCUCAACACAGCGUGGCAAGGUGGCUGUGGCUAGACUGCCUCUCUGGAUUCCUCGUCACUCAGCAGGGCAUCUCUGAGAGAAAUGCC	1.41
UACGUAGGUGGUUCUCCCCUGAUAGUGCUAAGGGGGCCUGGAAGUUUGGACUGGGCAGAGCUCAACACAGCGUGGCAAAGUGGCUGUGGCUAGACUGCCUCUCCGGAUUCCCCGUCACUCAGCAGAGCAUCUCUGAGAGAAAUGCC	1.99
UACGUAGGUGGUUUACCCCUGAUAGUGCUAAGGGGGCCUGGAGGUUUGGACUGGGCAGAGCUCAACACAGCGUGGCAAAGUGGCUGUGGCUAGACUGCCUCUCUGGAUUCCUCGUCAUUCAGCAGGGCAUCUCUGAGAGAAAUGCC	1.51
UACGUAGGUGGUUGUCCCCUGAUAGUGCUAAGGGGGCCUGGAAGCUUGGACUGGGCAGAGCUCAACACAGCGUGGCAAAGUGGCUGUGGCUAGACUGCCUCUCUGGAUUCCUCGUCACUCAGCAGGGCAUCUCUGGGAGAAAUGCC	0.92
UACGUAGGUGGUUGUCCCCUGAUAGUGCUAAGGGGGCCUGGAAGUUUGGACUGGGCAGAGCUCAACUCAGCGUGGCAAAGUGGCUGUGGCUAGACUGCCUCACUGGAUUCCUCGUCACUCAGCAGGGCAUCUCUGAGAGAAAUGCC	0.05
UACGUAGGUGGUUGUCCCCUGAUAGUGCUAAGGGGGCCUGGAAGUUUGGACUGGGCAGAGCUCAACACAGCGUGGCAAAGUGGCUGUGGCUUGACUGCCUCUCUGGAUUCCUCGUCACUCGGCAGGGCAUCUCUGAGAGAAGUGCC	1.02
UACGUAGGUGGUUUACCCCUGAUAGUGCUUAGGGGGCCUGGAAGUCUGGACUGGGCAGAGCUCAACACAGCGUGGCAAAGCGGCUGUGGCCAGACUGCCUCUCUGGAUUCCUCGUCACUCAGCAGGGCAUCUCUGAGAGAAAUGCC	0
UACGUAGGUGGUUCUCCCCUGAUAGUGCUAAGGGGGCCUGGAAGUUUGGACUGGGCAGAGCUCAACACAGCGUGGCAAAGUGGCUGUGGCUAGACUGCCUCCCUGGAUUCCUCGUCACCCAGCAGGGCAUCUCUGAGAGAAAUGUC	1.37
UACGUAGGUGGUUUACCCCUGAUAGUGCUUAGGGGGCCUGGAAGUUUGGACCGGGCAGAGCUCAACACAGCGUGGCAAAGUGGCUGUGGCUAGACUGCCUCUCUGGAUUCCUCGUCACUCAGCAGGGCAUCUCUGAGAGAAAUGCC	1.28
UACGUAGGUGGUUGUCCCCUGAUAGUGCUAAGGGGGCCUGGAAGUUUGGACUGGGCAGAGCUCAACACAGCGUGGCAAAGUGGCUGUGGCUAGACUGCCUCUCUGGAAUCCUCGACACUCAGCAGAGCAUCUCUGAGAGGAAUGCC	1.59
UACGUAGGUGGUUCUCCCCUGAUAGUGCUAAGGGGGCCUGGAAGUUUGGACUGGGCAGAGCUCAACACAGCGUGGCAAAGUGGCUGUGGCUAGACUGCCUCUCUGGAUUCCUCGUCACUCAGCAGGGCAUCACUGGGAGAAAUGCC	1.2
UACGUAGGUGGUUGUCCCCUGAUAGUGCUAAGGGGGCCUGGAAGUUUGGACUGGGCAGAGCUCAACACAGCGUGGCAAAGUGGCUGUGGCUAGACUGCCUCACUGGAUUCCUCGUCACUCAGCAGGGCGUCUCUGAGAGAAAUGCC	1
UACGUAGGUGGUUGUCCCCUGAUAGUGCUAAGGGGGCCUGGAAGUUUGGACUGGGCAGAGCUCAACACAGCGUGGCAAAGUGGCUGUGGCUAGACUGCCUCUCUGGAUUCCUCGUCACUCAGCAGGGCAAGUCUGAGAGAAAUGCC	0
UACGUAGGUGGUUUACCCCUGAUAGUGCUAAGGGGGCCUGGAGGUUUGGACUGGGCAGAGCUCAACACAGCGUGGCAAAGUGGCUGUGGCUAGACCGCCUCUCUGGAUUCCUCGUCACUCAGCAGGGCAUCUCUGAGAGAAAUGCC	0.57
UACGUAGGUGGUUGUCCCCUGAUAGUGCUAAGGGGGCCUGGAAGCUUGGACUGGGCAGAGCCCAACACAGCGUGGCAGAGUGGCUGUGGCUAGACUGCCUCUCUGGAUUCCUCGUCACUCAGCAGGGCAUCUCUGAGAGAAAUGCC	0
UACGUAGGUGGUUUACCCCUGAUAGUGCUAGGGGGGCCUGGAAGUUUGGACUGGGCAGAGCUCGACACAGCGUGGCAAAGUGGCUGUGGCUAGACCGCCUCUCUGGAUUCCUCGUCACUCUGCAGGGCAUCUCUGAGAGAAAUGCC	0
UACGUAGGUGGUUUACCCCUGAUAGUGCUUAGGGGGCCUGAAAGUUUGGACAGGGCGGAGCUCAACACAGCGUGGCAAAGUGGCUGUGGCUAGACUGCCUCUCUGGAUUCCUCGUCACUCAGCAGGGCAUCUCUGAGAGAAAUGCC	0.54
UACGUAGGUGGUUUACCCCUGAUAGUGCUAAGGGGGCCUGGAUGUUUGGACUGGGCAGAGCUCGACACAGCGUGGCAAGGUGGCUGUGGCUAGACUGCCUCUCUGGAUUCCUCGUCACUCAGCAGGGCAUCUCUGAGAGGAAUGCC	0.14
UACGUAGGUGGUUGUCCCCUGAUAGUGCUAAGGGGGCCUGGGAGUUUGGACUGGGCAGAGCUCAACGCAGCGUGGCAAAGUGGCUGUGGCUAGACUGCCUCUCUGGAUUCCUCGUCACUCAGCAGGGCAUCUCUGAGAGAAAUGCC	0.44
UACGUAGGUGGUUGUCCCCUGAUAGUGCUAAGGGGGCCUGGAAGUUUGGACUGGGCAGAGCUCAACACAGCGUGGCAAAGUGGCUGUGGCUAGACUGCCUCUCUGGAUUCCUCGCCACUCAGCAGGGCAUCUCUGUGAGAAAUGCC	1.58

Variant	self-cleavage
UACGUAGGUGGUUUACCCCUGUUAGUGCUAAGGGGGCCUGGAAGUUUGGACUGGGCAGAGCUCAACACAGCGUGGCAAAGUGGCUGUGGCUAGACUGCCUCUCUGGAUUCCUCGUCACUCAGUGGGGCAUCUCUGAGAGAAAUGCC	0.37
UACGUAGGUGGUUGUCCCCUGAUAGUGCUAAGGGGGCCUGGAAGUUUGGAUUGGGCGGAGCUCAACACAGCGAGGCAAAGUGGCUGUGGCUAGACUGCCUCUCUGGAUUCCUCGUCACUCAGCAGGGCAUCUCUGAGAGAAAUGCC	1.02
UACGUAGGUGGUUCUCCCCUGAUAGUGCUAAGGGGGCCUGGAAGUUUGGACUGGGCAGAGCUCAACACAGCGUGGCAAAGUGGCUGUGGCUAGACUGCCUCCCUGGACUCCUCGUCACUCAGCAGGGCAUCUCUGAGAGAGAUGCC	0
UACGUAGGUGGUUGUCCCCUGGUAGUGCUAAGGGGGCCUGGAAGUUUGGACUGGGCAGAGCUCAACACAGCGUGGCAAAGUGGCUGUGGCUAGACUGCCUCUCUGGAUUCCUCGUCACUCAGCAAGGCAUCUCUGAGAGAAAUGCC	0.75
UACGUAGGUGGUUUACCCCUGGUAGUGCUAAGGGGGCCUGGAAGUUUGGACUGGGCAGAGCUCAACCCAGCGUGGCAAAGUGGCUGUGGCUAGUCUGCCUCUCUGGAUUCCUCGUCACUCAGCAGGGCAUCUCUGAGAGAAAUGCC	0
UACGUAGGUGGUUGUCCCCUGAUAGUGCUAAGGGGGCCUGGAAGUUUGGACUGGGCAGAGCACAACACAGCGUGGCAAAGUGGCUGUGGCUAGACUGCCUCUCUGGAUUCCUCGUCACUCAGCAGGGCAUCUCUGAGAGAAGUGCC	0.09
UACGUAGGUGGUUGUCCCCUGAUAGUGCUAAGGGGGCCAGGAAGCUUGGACUGGGCAGAGCUCAACACAGCGUGGCAAAGUGGCUGUGGCUAGACUGCCUCUCUGGAUUCCUCGUCACUCAGCAGGGCAUCUCUGAGAGAAAUGCU	1.09
UACGUAGGUGGUUGUCCCCUGAUAGUGCUAAGGGGGCCUGGAAGUUUGGACUGGGCAGAGCUCAACACAGCGUGGCAAAGUGGCUGUGGCUAGACUGCCUCCCUGGAUUCCUCGUCACUCAGCAGGGCAUCUCAGAGGGAAAUGCC	0.42
UACGUAGGUGGUUGUCCCCUGAUAGUGCUAUGGGGGCCUGGAAGUUUGGACUGGGCAGCGCUCAACACAGCGUGGCAAAGUGGCUGUGGCUAGACUGCCUCUCUGGAUUCCUCGUCUCUCAGCAGGGCAUCUCUGAGAGAAAUGCC	0.46
UACGUAGGUGGUUGUCCCCUGAUAGUGCUAAGGGGGCCUGGAAGUCUGGACUGGGCAGAGCUCAACACAGCGUGGCAAAGAGGCUGUGGCUAGACUGUCUCUCUGGAUUCCUCGUCACUCAGCAGGGCAUCUCUGGGAGAAAUGCC	0.82
UACGUAGGUGGUUUACCCCUGAUGGUGCUAAGGGGGCCUGGAAGUUUGGACUGGGCAGAGCUCAACACAGCGUGGCAAAGUGGCUGUGGCUAGACUGCCUCUCUGGAUUCCUCGUCACUCAGCAGGGCAUCUCUGAGGGAAAUGCC	1.44
UACGUAGGUGGUUCUCCCCUGAUAGUGCUAAGGGGGCCUGGAAGUUUGGACUGGGCAGAGCUCAACACAGCGUGGCAAAGUGGCUGUGGCUAGACUGCCUCUCUGGAUCCCUCGUCACUCAGCAGGGCAUCUCCGAGAGAAAUGUC	1.48
UACGUAGGUGGUUGUCCCCUGAUAGUGCUAAGGGGGCCUGGAAGUUUGGACUGGGCAGAGCUCAUCACAGCGUGGCAAAGUGGCUGUGGCUAGACUGCCUCUCUGGAUUCCUCGUCACUCAGCAGGGCAUCACUGAGAGAAAUGCC	0.79
UACGUAGGUGGUUUACCCCUGAUAGUGCUUAGGGGGCCUGGAAGUUUGGACUGGGCAGAGCUCAACACAGCGUGGCGAAGUGGCUGUGGCUAGACUGCCUCACUGGAUUCCUCGUCACUCAGCAGGGCAUCUCUGAGAGAAAUGCC	0.74
UACGUAGGUGGUUUACCCCUGGUAGUGCUAAGGGGGCCUGGAAGUUUGGACUGGGCAGAGCUCAACACAGCGUGGCAAAGUGGCUGUGGCUAGACUGCCUCUCUGGAUCCCUCGUCACUCAGCAGGGCAUCUCUGAGAGAAAUGCC	1.31
UACGUAGGUGGUUUACCCCUGAUAGUGCUAGGGGGGCCUGGAAGUUUGGACUGGGCAGAGCUCAGCACAGUGUGGCAAAGUGGCUGUGGCUAGACUGCCUCUCUGGAUUCCUCGUCACUCAGCAGGGCAUCUCUGAGAGAAAUGCC	0
UACGUAGGUGGUUGUCCCCUGAUAGUGCUAGGGGGGCCUGGAAGUUUGGACAGGGCAGAGCUCAACACAGCGUGGCAAAGUGGCUGUGGCUAGACUGCCUCUCUGGAUUCCUCGUCACUCAGCAGGGCAUCUCUGAGAGAAAUGCC	1.04
UACGUAGGUGGUUGUCCCCUGAUAGUGCUAAGGGGGCCUGGAAGUUUGGACUGGGCAGAGCUCAACACAGCGUGGCAAAGUGGCUGUGGCUAGACUGCCACUCUGGAUUCCUCGUCACUCAGCAGGGCAUCUCUGAGAGAAGUGCC	0.57
UACGUAGGUGGUUGUCCCCUGAUAGUGCUAAGGGGGCCUGGAAGUUUGGGCCGGGCAGAGCUCAACACAGCGUGGCAAAGUAGCUGUGGCUAGACUGCCUCUCUGGAUUCCUCGUCACUCAGCAGGGCAGCUCUGAGAGAAAUGCC	1.44
